Data: PubChem BioAssay AID2676 (National Center for Advancing Translational Sciences (NCATS), 2010)
“And” between values parts separate entries of the source, which are not always exact repeats. Equal entries are not always repeated. The whole screen tested about 370,000 compounds, of which about 1,100 (0.3%) were called active. Inconclusive results, whose numbers are uncertain, are shown with a selection of clear calls. Calls follow the shape of the dose curve; as a rule, active = well fitted activation curve with a large enough effect; inconclusive = small, poorly fitted or top-dose-only effect; inactive = flat fitted curve, though single readings scatter. Where the call is inconclusive, the potency comes from a doubtful curve fit.

molecular target: Relaxin receptor 1 (Homo sapiens) (UniProt Q9HBX9); assay: qHTS Assay for Agonists of the Relaxin Receptor RXFP1; settings: HEK293T-RXFP1 cAMP TR-FRET, 30 min; series mostly up to 57.5 µM; activation: at the top concentration; also: nearly all actives have a fitted effect of over 60% in size
Chain of UniProt Q9HBX9 (Q9HBX9 whole entry, looked up): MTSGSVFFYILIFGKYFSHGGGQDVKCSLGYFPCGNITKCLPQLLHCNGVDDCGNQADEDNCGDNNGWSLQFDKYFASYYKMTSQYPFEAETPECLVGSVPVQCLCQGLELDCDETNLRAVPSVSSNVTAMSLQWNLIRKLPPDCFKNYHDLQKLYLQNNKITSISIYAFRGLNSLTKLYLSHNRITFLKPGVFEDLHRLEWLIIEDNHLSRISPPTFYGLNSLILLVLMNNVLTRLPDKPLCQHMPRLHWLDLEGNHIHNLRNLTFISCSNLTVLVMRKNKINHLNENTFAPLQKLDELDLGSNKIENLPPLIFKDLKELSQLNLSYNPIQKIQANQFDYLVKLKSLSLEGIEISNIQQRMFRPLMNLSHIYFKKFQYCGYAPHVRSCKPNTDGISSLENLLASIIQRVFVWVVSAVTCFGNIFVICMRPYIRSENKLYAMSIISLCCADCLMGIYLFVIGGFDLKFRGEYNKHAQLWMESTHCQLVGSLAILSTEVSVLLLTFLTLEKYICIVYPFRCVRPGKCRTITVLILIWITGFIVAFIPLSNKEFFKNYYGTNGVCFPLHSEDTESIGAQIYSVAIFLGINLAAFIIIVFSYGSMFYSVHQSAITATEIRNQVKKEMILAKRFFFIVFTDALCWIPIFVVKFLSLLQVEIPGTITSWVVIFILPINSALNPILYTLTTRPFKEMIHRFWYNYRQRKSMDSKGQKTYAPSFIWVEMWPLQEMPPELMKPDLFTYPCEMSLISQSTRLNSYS
In short: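 Agonist response is measured as cAMP accumulation in an RXFP1-transfected HEK293T line under PDE4 inhibition. Values are scaled between buffer-only and 29 nM porcine relaxin, and EC50s come from standard Hill equation fits.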
% is scaled to controls: 0 for no effect and ±100 for the full control effect; potency is read from the fitted curve at half-maximal effect; tags tell the direction and shape of the fitted curve.

Row | Structure (SMILES) | Potency | activation
1 | O=C(C1=C(O)C(=O)N(CCN2CCOCC2)C1c1ccc(Cl)cc1)c1cc2ccccc2o1 (stereo not given) | inconclusive: 28.2 µM [activator, partial curve] | –
2 | COc1ccc2nc(SC)c(C#N)cc2c1 | inconclusive: 35.5 µM [activator, single point] | –
3 | CC(=O)c1ccc(NC(=O)c2ccc(-n3cnnc3)cc2)cc1 | inconclusive: 28.2 µM [activator, single point] | –
4 | CCOc1ccc(C(=O)c2oc3ccccc3c2NC(=O)c2cc(-c3ccc(Cl)cc3)on2)cc1 | inconclusive: 39.8 µM [activator, single point] | –
5 | O=c1oc2c3c(ccc2c2ccccc12)OCN(Cc1ccccc1Cl)C3 | active: 28.2 µM | –
6 | Cn1c(=O)c2sccc2n2c(CCCC(=O)NC3CCCCC3)nnc12 | inconclusive: 6.31 µM [activator, partial curve] | –
7 | COc1cc2[nH]c(=S)n(NC(=O)c3ccccc3)c(=O)c2cc1OC | inconclusive: 25.1 µM [activator, partial curve] | –
8 | CN(C)S(=O)(=O)c1ccc2c(c1)N(CC(=O)N1CCN(c3ccc(F)cc3)CC1)CCS2 | inconclusive: 39.8 µM [activator, single point] | –
9 | NC(=O)CSc1ncc2c(n1)-c1ccccc1N(Cc1cccc(F)c1)S2(=O)=O | inconclusive: 28.2 µM [activator, single point] | –
10 | N#C/C(=C1/CCCCCN1)c1nc2ccccc2[nH]1 | – | inactive: 0.293%
11 | COc1ccc(C)cc1NC(=O)c1sc2nc(C)nc(N3CCOCC3)c2c1C | inconclusive: 31.6 µM [activator, single point] | –
12 | CCCC[C@]12Cc3ccccc3C(O1)c1c(cc(-c3ccccc3)oc1=O)O2 | – | inactive: 9.28% [at 11.5 µM, percent of porcine relaxin response, buffer zero]
13 | O=C(/C=C/c1ccc(-c2ccccc2[N+](=O)[O-])o1)c1ccco1 | – | inactive: 1.27%
14 | CCC(Sc1nc(-c2ccccc2)c(C#N)c(=O)[nH]1)C(=O)Nc1cc(C)on1 (stereo not given) | inconclusive: 17.8 µM [activator, partial curve] | –
15 | Cc1ccc(OC(=O)c2ccccc2P(=O)(O)O)cc1 | inconclusive: 39.8 µM [activator, single point] | –
16 | Cc1nn(C)c(C)c1S(=O)(=O)N1CCCC(C(=O)N2CCN(c3ccc(Cl)cc3)CC2)C1 (stereo not given) | – | inactive: -0.645%
17 | CCN(CC)S(=O)(=O)c1ccc(N2CCOCC2)c(NC(=O)c2cccc(C#N)c2)c1 | inconclusive: 20 µM [activator, partial curve] | –
18 | Cc1cc(C)c(C#N)c(SCCS(=O)(=O)Cc2ccc(Cl)cc2)n1 | inconclusive: 39.8 µM [activator, single point] | –
19 | Cc1cc(-c2ccc(Cl)cc2)c(C#N)c(N)n1 | inconclusive: 39.8 µM [activator, single point] | –
20 | CCCCn1c(NS(=O)(=O)c2ccc(C)cc2)c(S(=O)(=O)c2ccccc2)c2nc3ccccc3nc21 | inconclusive: 31.6 µM [activator, partial curve] | –
21 | Cc1cc(=O)[nH]c(N/N=C/c2c(F)c(F)c(F)c(F)c2F)n1 | inconclusive: 17.8 µM [activator, partial curve] | –
22 | COc1ccccc1C(=O)Nc1cccc(NC(=O)c2ccccc2OC)n1 | inconclusive: 31.6 µM [activator, single point] | –

Row | Structure (SMILES) | Potency | activation
23 | COc1ccccc1CNC(=O)CSCc1cnn(-c2ccccc2)c1-n1cccc1 | – | inactive: 1.17%
24 | CN(CCC#N)C(=O)CSc1nc2scc(-c3ccccc3)c2c(=O)[nH]1 | – | inactive: 1.85%
25 | COc1ccc(-c2cc(C(F)(F)F)n3nc(C(=O)Nc4cccc(C(F)(F)F)c4)c(Br)c3n2)cc1 | inconclusive: 3.16 µM [activator, partial curve] | –
26 | CCc1ccc(NC(=O)CSc2nc(C)cc(COC)c2C#N)cc1 | inconclusive: 39.8 µM [activator, single point] | –
27 | COc1cccc(-c2ccc(C#N)c(SCC(=O)NCCc3cccc(Cl)c3)n2)c1 | inconclusive: 35.5 µM [activator, single point] | –
28 | COc1ccc(C(=O)OCc2cc3cccc(C)c3[nH]c2=O)cc1 | inconclusive: 28.2 µM [activator, partial curve] | –
29 | CCOc1ccc(S(=O)(=O)c2c[nH]c3ccccc3c2=O)cc1 | inconclusive: 31.6 µM [activator, single point] | –
30 | O=C(O)c1cc(-c2ccco2)nc2ccc(Br)cc12 | active: 11.2 µM and active: 12.6 µM | –
31 | CC12CCC(C/C1=N/OC(=O)c1cccc([N+](=O)[O-])c1)C2(C)C (stereo not given) | – | inactive: 0.0011%
32 | Cc1ccc(C)c(N(C(=O)c2snc(C(N)=O)c2N)C(C(=O)NCC2CCCO2)c2ccc(C)o2)c1 (stereo not given) | – | inactive: 0.673%
33 | COc1ccc(NC(=O)NCCCN2CCCC2=O)cc1 | – | inactive: 1.3%
34 | CCC(C)NC(=O)C1CCN(C(=O)c2ccc(-n3ccc4ccccc43)s2)CC1 (stereo not given) | inconclusive: 22.4 µM [activator, partial curve] | –
35 | COc1ccccc1Cc1nc2ccccc2nc1SCC(=O)N1CCc2ccccc21 | inconclusive: 39.8 µM [activator, single point] | –
36 | COc1ccccc1N1CCN(c2ccc(-c3nc(-c4ccccc4C)no3)cc2[N+](=O)[O-])CC1 | inconclusive: 31.6 µM [activator, partial curve] | –
37 | CC(C)(C)c1ccc(/C([O-])=C(/C(=S)NCc2ccco2)[n+]2ccccc2)cc1 | active: 25.1 µM | –
38 | Cc1ccc2c(=O)c(C(=O)c3ccc(F)cc3)cn(CC(=O)NCc3ccccc3Cl)c2n1 | inconclusive: 35.5 µM [activator, single point] | –
39 | Cc1cccc(-c2nc(SCC(=O)NCc3ccco3)c3c(=O)n(C)c(=O)n(C)c3n2)c1 | inconclusive: 39.8 µM [activator, single point] | –
40 | CCOC(=O)c1c(NC(=O)CSc2nc3ccccc3c(=O)n2-c2ccccc2)sc(C(C)=O)c1C | inconclusive: 39.8 µM [activator, single point] | –
41 | Cc1cc(NC(=O)CSc2ccc(-c3ccc4c(c3)OCO4)nn2)no1 | inconclusive: 39.8 µM [activator, single point] | –
42 | Cc1c(Cl)c(-c2n[nH]c(=S)n2-c2ccc(F)cc2)nn1C | inconclusive: 17.8 µM [activator, partial curve] | –
43 | CCOc1nc(-c2ccc(C)cc2)ccc1-c1noc(-c2ccccc2F)n1 | inconclusive: 35.5 µM [activator, single point] | –
44 | CCN(CC)S(=O)(=O)c1ccc2oc(C(=O)Nc3ccc(Br)cc3F)c(C)c2c1 | inconclusive: 31.6 µM [activator, partial curve] | –

Row | Structure (SMILES) | Potency | activation
45 | COC(=O)C1=C(C)NC(=O)CC1c1cccc(Cl)c1Cl (stereo not given) | – | inactive: 1.1%
46 | Cc1ccc(SC(CC(=O)c2ccc(F)cc2)C(=O)O)cc1 (stereo not given) | – | inactive: 4.76%
47 | COc1cc(NS(=O)(=O)c2ccc3[nH]c(=O)oc3c2)cc(OC)c1 | – | inactive: 0.852%
48 | Cn1c(C(=O)NCCN2CCOCC2)cc2c(=O)n3ccccc3nc21 | inconclusive: 22.4 µM [activator, partial curve] | –
49 | Cc1ccc2oc3nc(C)c(C(=O)Nc4cccc(C(F)(F)F)c4)cc3c(=O)c2c1 | inconclusive: 35.5 µM [activator, single point] | –
50 | Cc1cccn2c(=O)c3cc(C(=O)NCCCOC(C)C)sc3nc12 | inconclusive: 28.2 µM [activator, partial curve] | –
51 | Cc1ccc(CNC(=O)c2ccc(N3Cc4ccccc4Oc4ncccc43)s2)cc1 | inconclusive: 20 µM [activator, partial curve] | –
52 | Clc1ncnc2scc(-c3ccccc3)c12 | – | inactive: 1.07%
53 | COc1cc(Br)cc2cc(S(=O)(=O)c3ccccc3)c(=O)oc12 | inconclusive: 39.8 µM [activator, single point] | –
54 | CCc1cccc(C)c1Nc1c(-c2ccc(N(C)C)cc2)nc2cnccn12 | inconclusive: 28.2 µM [activator, partial curve] | –
55 | CCCCOC(=O)CSc1nc(N)c(C#N)c(-c2ccc(OCC)cc2)c1C#N | inconclusive: 14.1 µM [activator, partial curve] | –
56 | CSc1nc(-c2cccs2)c(C#N)c(=O)[nH]1 | active: 14.1 µM | –
57 | Cc1ccc(C(=O)c2oc3ccccc3c2NC(=O)C(C)Oc2ccccc2Cl)cc1 (stereo not given) | inconclusive: 35.5 µM [activator, single point] | –
58 | Cn1c(=S)[nH]c2ccccc21 | inconclusive: 31.6 µM [activator, single point] | –
59 | CN(C)c1ccc(C(=O)Nc2ccc(-c3nc4ccccc4o3)cc2)cc1 | inconclusive: 12.6 µM [activator, partial curve] | –
60 | CCc1ccc(S(=O)(=O)c2nnn3c2nc(NC(C)C)c2cc(Cl)ccc23)cc1 | inconclusive: 31.6 µM [activator, single point] | –
61 | CC1(C)C(CSc2nc3ccccc3[nH]2)C1(Cl)Cl (stereo not given) | inconclusive: 31.6 µM [activator, single point] | –
62 | COCc1cc(=O)[nH]c2cc(NC(=O)c3cccc(OC)c3)c(C)cc12 | inconclusive: 35.5 µM [activator, single point] | –
63 | COC(=O)c1c(SCC(=O)Nc2ccccc2C(F)(F)F)[nH]c2ccc(Cl)cc2c1=O | inconclusive: 35.5 µM [activator, single point] | –
64 | CCc1ccc2n(-c3ccc(OC)cc3)c([S-])c(C(=O)Nc3cc(C)cc(C)c3)[n+]2c1 | active: 5.01 µM | –
65 | CCOC(=O)CNC(=O)CSc1nc(Cc2ccccc2)nc2ccccc12 | inconclusive: 15.8 µM [activator, partial curve] | –
